Test results as given in the supplement of paper PMC10369915.
This is one part of the list. No stated cut-off is given here; in the data, active = 3.2 or more and inactive = the rest. Most of these values are background signal.

B1: CYP21A2_Y190_YF (peptide)
chain: NLMPAYFKCIQ
B2: CYP2C8_Y243_K247R (peptide)
chain: ALTRSYIRERV
B3: CYP2C8_Y379 (peptide)
chain: TKFRNYLIPKG
B4: DCHS1_Y1582 (peptide)
chain: AARVSYRLASG
B5: DCHS1_Y1582_R1583W (peptide)
chain: AARVSYWLASG
B6: DCLK2_Y124 (peptide)
chain: GVRTIYTIDGS
B7: DCLRE1C_Y322_S320C (peptide)
chain: SFHCSYSEIKD
B8: DCTN1_Y1244_T1249I (peptide)
chain: QDDTVYMGKVI
B9: DCTN4_Y263 (peptide)
chain: CASQLYPRHKH
B10: DCX_Y103 (peptide)
chain: PQGVRYIYTID
B11: DCX_Y103_G100A_YF (peptide)
chain: PQAVRYIFTID
B12: DCX_Y103_I104T (peptide)
chain: PQGVRYTYTID
B13: DCX_Y103_I104T_YF (peptide)
chain: PQGVRYTFTID
B14: DCX_Y103_R102S (peptide)
chain: PQGVSYIYTID
B15: DCX_Y103_YF (peptide)
chain: PQGVRYIFTID
B16: DCX_Y105_G100A_YF (peptide)
chain: AVRFIYTIDGS
B17: DCX_Y125_Y125D (peptide)
chain: EEGESDVCSSD
B18: DCX_Y64_G67E (peptide)
chain: RNGDRYFKEIV

What follows are binders tested against SHP2 C-SH2 domain E139D (assay: enrichment score (SH2-bound / input frequency) (ratio); bacterial display of known human phosphotyrosine sites (pTyr-Var adds point mutants) read by sequencing; higher = stronger binding; tyrosines were phosphorylated by kinases first). Details: peptide library: pTyr-Var.
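Further: displayed peptides selected on beads carrying the immobilized SH2 domain, with library peptides lacking any tyrosine serving as negative controls.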

Binder | enrichment score
B1 | inactive: 0.819
B2 | inactive: 0.27
B3 | inactive: 0.952
B4 | inactive: 0.518
B5 | inactive: 0.732
B6 | inactive: 0.75
B7 | inactive: 0.839
B8 | inactive: 0.63
B9 | inactive: 2.02
B10 | inactive: 1.76
B11 | inactive: 1.86
B12 | inactive: 0.888
B13 | inactive: 1.48
B14 | inactive: 1.58
B15 | inactive: 2.45
B16 | inactive: 1.09
B17 | inactive: 0.397
B18 | inactive: 0.662

These binders were tested against SHP2 C-SH2 domain wild-type in the same assay as above. Details: peptide library: pTyr-Var.

Binder | enrichment score
B1 | inactive: 0.879
B2 | inactive: 0.263
B3 | inactive: 0.829
B4 | inactive: 0.664
B5 | inactive: 0.954
B6 | inactive: 0.639
B7 | inactive: 1.47
B8 | inactive: 0.81
B9 | inactive: 2.07
B10 | active: 4.56
B11 | inactive: 1.89
B12 | inactive: 1.76
B13 | inactive: 1.3
B14 | active: 4.5
B15 | inactive: 2.48
B16 | inactive: 1.53
B17 | inactive: 0.474
B18 | inactive: 0.449

Each binder was assayed against SHP2 N-SH2 domain L43F in the same assay as above. Details: peptide library: pTyr-Var.

Binder | enrichment score
B1 | inactive: 0.947
B2 | inactive: 0.287
B3 | inactive: 0.803
B4 | inactive: 0.712
B5 | inactive: 0.796
B6 | inactive: 0.761
B7 | inactive: 0.782
B8 | inactive: 1.57
B9 | inactive: 1.92
B10 | inactive: 1.41
B11 | inactive: 1.67
B12 | inactive: 0.882
B13 | inactive: 1.39
B14 | inactive: 1.18
B15 | inactive: 1.71
B16 | inactive: 1.5
B17 | inactive: 0.365
B18 | inactive: 0.913

What follows are binders tested against SHP2 N-SH2 domain T42A in the same assay as above. Details: peptide library: pTyr-Var.

Binder | enrichment score
B1 | inactive: 0.805
B2 | inactive: 0.323
B3 | inactive: 0.882
B4 | inactive: 0.441
B5 | inactive: 0.721
B6 | inactive: 0.726
B7 | inactive: 0.789
B8 | inactive: 0.881
B9 | inactive: 1.74
B10 | inactive: 2.71
B11 | inactive: 2.31
B12 | inactive: 1.95
B13 | inactive: 1.83
B14 | inactive: 2.65
B15 | inactive: 2.35
B16 | inactive: 1.08
B17 | inactive: 0.389
B18 | inactive: 0.562

Each binder was assayed against SHP2 N-SH2 domain T52S in the same assay as above. Details: peptide library: pTyr-Var.

Binder | enrichment score
B1 | inactive: 0.612
B2 | inactive: 0.342
B3 | inactive: 0.858
B4 | inactive: 0.566
B5 | inactive: 0.926
B6 | inactive: 0.705
B7 | inactive: 0.778
B8 | inactive: 0.859
B9 | inactive: 2.24
B10 | inactive: 1.27
B11 | inactive: 2.16
B12 | inactive: 1.04
B13 | inactive: 1.27
B14 | inactive: 0.871
B15 | inactive: 2.02
B16 | inactive: 1.22
B17 | inactive: 0.377
B18 | inactive: 0.502

Each binder was assayed against SHP2 N-SH2 domain wild-type in the same assay as above. Details: peptide library: pTyr-Var.

Binder | enrichment score
B1 | inactive: 1.25
B2 | inactive: 0.365
B3 | inactive: 0.988
B4 | inactive: 0.84
B5 | inactive: 1.02
B6 | inactive: 0.616
B7 | inactive: 0.924
B8 | inactive: 1.65
B9 | inactive: 2.25
B10 | inactive: 1.12
B11 | inactive: 1.95
B12 | inactive: 0.877
B13 | inactive: 1.13
B14 | inactive: 1.12
B15 | inactive: 2.52
B16 | inactive: 1.39
B17 | inactive: 0.354
B18 | inactive: 0.74
